Measured values taken from article PMC9845754.
These are yes or no findings as the source states them, for the method shown. For some assays here: In cells and extracts the contact can be indirect. Some binding calls cover weakened binding; strength is not graded here. Sequences can lack the tags named with a protein.

Amino acid sequences for entries named in this document (tags omitted). A change or cut given only in a name is not applied to a line headed by its entry. Chains listed by the source or under a name are the forms on record and can include a tag or linker.
UniProt O82481: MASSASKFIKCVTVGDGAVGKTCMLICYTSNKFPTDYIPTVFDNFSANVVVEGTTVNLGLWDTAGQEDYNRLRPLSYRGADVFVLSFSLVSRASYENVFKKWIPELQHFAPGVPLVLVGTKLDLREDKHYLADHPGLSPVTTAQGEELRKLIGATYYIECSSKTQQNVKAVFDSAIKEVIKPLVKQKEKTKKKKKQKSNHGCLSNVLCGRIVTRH
YN-rop11CA (constitutively active ROP11 fused at its N-terminus to the N-terminal half of YFP) (O82481, form named): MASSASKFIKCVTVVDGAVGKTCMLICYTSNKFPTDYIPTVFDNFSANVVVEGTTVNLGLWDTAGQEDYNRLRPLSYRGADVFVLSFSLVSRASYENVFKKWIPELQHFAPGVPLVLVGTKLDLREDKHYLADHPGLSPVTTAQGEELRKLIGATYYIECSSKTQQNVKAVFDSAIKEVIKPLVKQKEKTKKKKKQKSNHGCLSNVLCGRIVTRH

What was measured:
[1] = biological target: T1, ICR5, yeast two-hybrid fusion (Arabidopsis) (UniProt Q8VYU8); assay: two-hybrid; S. cerevisiae PJ69-4a; dilution series 1, 1/10, 1/100, 1/1,000 on -Leu, Trp, His (-LTH) plates with 1 mM 3-AT, -LT plates as growth control; 28°C
T1 sequence: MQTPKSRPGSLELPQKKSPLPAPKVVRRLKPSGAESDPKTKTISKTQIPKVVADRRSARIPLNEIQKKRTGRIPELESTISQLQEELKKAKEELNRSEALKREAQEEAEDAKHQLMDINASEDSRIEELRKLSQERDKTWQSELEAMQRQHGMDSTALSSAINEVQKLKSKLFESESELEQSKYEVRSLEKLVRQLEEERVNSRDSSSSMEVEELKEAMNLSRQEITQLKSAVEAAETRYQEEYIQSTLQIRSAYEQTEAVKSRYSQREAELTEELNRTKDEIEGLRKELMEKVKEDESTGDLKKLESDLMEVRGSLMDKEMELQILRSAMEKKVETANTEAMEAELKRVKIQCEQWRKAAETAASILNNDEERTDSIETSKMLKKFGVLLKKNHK

[2] = biological target: constitutively active ROP11 (rop11CA), yeast two-hybrid fusion (Arabidopsis) (UniProt O82481); assay: as above
[3] = biological target: T2, ICR3, yeast two-hybrid fusion (Arabidopsis) (UniProt Q9LSS5); assay: as above
T2 sequence: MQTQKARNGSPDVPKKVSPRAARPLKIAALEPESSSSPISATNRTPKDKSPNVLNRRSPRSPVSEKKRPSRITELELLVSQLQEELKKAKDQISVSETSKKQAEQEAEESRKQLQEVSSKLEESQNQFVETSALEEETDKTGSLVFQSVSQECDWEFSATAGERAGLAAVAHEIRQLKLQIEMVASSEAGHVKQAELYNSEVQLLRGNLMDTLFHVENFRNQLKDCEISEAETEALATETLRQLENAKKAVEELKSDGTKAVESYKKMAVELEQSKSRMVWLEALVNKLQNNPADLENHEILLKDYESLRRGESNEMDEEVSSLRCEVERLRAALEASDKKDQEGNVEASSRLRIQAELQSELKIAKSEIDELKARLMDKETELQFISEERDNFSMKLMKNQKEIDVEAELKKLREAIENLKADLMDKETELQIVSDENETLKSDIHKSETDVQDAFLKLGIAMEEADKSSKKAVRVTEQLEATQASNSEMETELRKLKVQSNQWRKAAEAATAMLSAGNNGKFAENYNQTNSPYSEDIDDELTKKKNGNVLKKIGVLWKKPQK

[4] = biological target: T3, ICR2, yeast two-hybrid fusion (Arabidopsis) (UniProt Q9ZQC5); assay: as above
T3 sequence: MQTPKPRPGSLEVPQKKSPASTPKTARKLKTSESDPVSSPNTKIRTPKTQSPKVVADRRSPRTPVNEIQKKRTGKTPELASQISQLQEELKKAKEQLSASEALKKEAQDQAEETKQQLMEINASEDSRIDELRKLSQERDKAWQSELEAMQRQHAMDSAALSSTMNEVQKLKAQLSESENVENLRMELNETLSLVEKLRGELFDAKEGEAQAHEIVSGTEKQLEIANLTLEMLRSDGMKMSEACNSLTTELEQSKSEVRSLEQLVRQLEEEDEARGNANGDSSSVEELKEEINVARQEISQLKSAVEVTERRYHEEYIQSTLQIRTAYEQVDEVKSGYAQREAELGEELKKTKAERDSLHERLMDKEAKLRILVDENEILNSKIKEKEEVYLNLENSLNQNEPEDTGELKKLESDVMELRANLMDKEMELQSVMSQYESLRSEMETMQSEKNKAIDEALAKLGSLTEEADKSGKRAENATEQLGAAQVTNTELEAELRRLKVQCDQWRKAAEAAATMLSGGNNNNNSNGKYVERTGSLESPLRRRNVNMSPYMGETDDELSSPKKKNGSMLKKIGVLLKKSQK

[5] = biological target: T1, ICR5, yeast two-hybrid fusion (Arabidopsis); assay: two-hybrid; yeast two-hybrid in S. cerevisiae PJ69-4a; pGBT9.BS and pGAD.GH fusions; growth of four decimal dilutions on -Leu -Trp -His medium with 1 mM 3AT, 28°C
[6] = biological target: T4, ICR5 (interactor of constitutively active ROP 5) fused to a half of YFP for BiFC (Arabidopsis) (UniProt Q8VYU8); assay: split reporter; BiFC; YN and YC fusions transiently co-expressed in N. benthamiana leaf epidermis, confocal imaging; for the ICR-ICR pairs lambda stacks excited at 514 nm, emission 521-690 nm, unmixed for the YFP signal
T4 sequence: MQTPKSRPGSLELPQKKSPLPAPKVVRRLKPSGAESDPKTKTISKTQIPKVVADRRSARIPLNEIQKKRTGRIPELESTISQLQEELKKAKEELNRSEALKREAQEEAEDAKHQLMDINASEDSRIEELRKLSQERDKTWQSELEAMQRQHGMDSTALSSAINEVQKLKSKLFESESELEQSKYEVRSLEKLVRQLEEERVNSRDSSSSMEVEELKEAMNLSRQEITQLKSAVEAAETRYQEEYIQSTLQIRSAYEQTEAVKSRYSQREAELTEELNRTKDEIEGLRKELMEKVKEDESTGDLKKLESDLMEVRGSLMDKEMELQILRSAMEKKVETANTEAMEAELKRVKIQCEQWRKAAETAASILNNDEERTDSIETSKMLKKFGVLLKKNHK

[7] = biological target: YN-rop11CA (constitutively active ROP11 fused at its N-terminus to the N-terminal half of YFP) (Arabidopsis) (UniProt O82481); assay: as above
[8] = biological target: T5, ICR3 (interactor of constitutively active ROP 3) fused to a half of YFP for BiFC (Arabidopsis) (UniProt Q9LSS5); assay: as above
T5 sequence: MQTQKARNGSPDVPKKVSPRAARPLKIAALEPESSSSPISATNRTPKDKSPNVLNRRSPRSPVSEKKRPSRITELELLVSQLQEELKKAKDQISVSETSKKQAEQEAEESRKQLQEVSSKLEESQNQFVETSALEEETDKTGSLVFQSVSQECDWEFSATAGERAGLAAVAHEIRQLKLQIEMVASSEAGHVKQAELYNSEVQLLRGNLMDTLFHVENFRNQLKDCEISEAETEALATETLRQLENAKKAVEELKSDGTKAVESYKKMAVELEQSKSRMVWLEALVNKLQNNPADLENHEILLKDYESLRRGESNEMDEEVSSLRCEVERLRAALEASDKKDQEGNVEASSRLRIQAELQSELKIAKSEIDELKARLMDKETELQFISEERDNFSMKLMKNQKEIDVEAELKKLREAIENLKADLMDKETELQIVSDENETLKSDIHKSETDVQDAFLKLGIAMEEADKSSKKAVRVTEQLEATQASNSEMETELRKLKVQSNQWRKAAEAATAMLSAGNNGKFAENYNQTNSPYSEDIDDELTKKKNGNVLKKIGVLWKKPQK

Row | Binder | binding [1] | binding [2] | binding [3] | binding [4] | binding [5] | binding [6] | binding [7] | binding [8]
1 | ICR5, yeast two-hybrid fusion (protein, UniProt Q8VYU8 1-396) MQTPKSRPGSLELPQKKSPLPAPKVVRRLKPSGAESDPKTKTISKTQIPKVVADRRSARIPLNEIQKKRTGRIPELESTISQLQEELKKAKEELNRSEALKREAQEEAEDAKHQLMDINASEDSRIEELRKLSQERDKTWQSELEAMQRQHGMDSTALSSAINEVQKLKSKLFESESELEQSKYEVRSLEKLVRQLEEERVNSRDSSSSMEVEELKEAMNLSRQEITQLKSAVEAAETRYQEEYIQSTLQIRSAYEQTEAVKSRYSQREAELTEELNRTKDEIEGLRKELMEKVKEDESTGDLKKLESDLMEVRGSLMDKEMELQILRSAMEKKVETANTEAMEAELKRVKIQCEQWRKAAETAASILNNDEERTDSIETSKMLKKFGVLLKKNHK | no binding | binds | no binding | no binding | no binding |  |  | 
2 | ICR3 (interactor of constitutively active ROP 3) fused to a half of YFP for BiFC (protein, UniProt Q9LSS5 1-564) MQTQKARNGSPDVPKKVSPRAARPLKIAALEPESSSSPISATNRTPKDKSPNVLNRRSPRSPVSEKKRPSRITELELLVSQLQEELKKAKDQISVSETSKKQAEQEAEESRKQLQEVSSKLEESQNQFVETSALEEETDKTGSLVFQSVSQECDWEFSATAGERAGLAAVAHEIRQLKLQIEMVASSEAGHVKQAELYNSEVQLLRGNLMDTLFHVENFRNQLKDCEISEAETEALATETLRQLENAKKAVEELKSDGTKAVESYKKMAVELEQSKSRMVWLEALVNKLQNNPADLENHEILLKDYESLRRGESNEMDEEVSSLRCEVERLRAALEASDKKDQEGNVEASSRLRIQAELQSELKIAKSEIDELKARLMDKETELQFISEERDNFSMKLMKNQKEIDVEAELKKLREAIENLKADLMDKETELQIVSDENETLKSDIHKSETDVQDAFLKLGIAMEEADKSSKKAVRVTEQLEATQASNSEMETELRKLKVQSNQWRKAAEAATAMLSAGNNGKFAENYNQTNSPYSEDIDDELTKKKNGNVLKKIGVLWKKPQK |  |  |  |  |  | no binding | binds | no binding
3 | ICR5 (interactor of constitutively active ROP 5) fused to a half of YFP for BiFC (protein, UniProt Q8VYU8 1-396) MQTPKSRPGSLELPQKKSPLPAPKVVRRLKPSGAESDPKTKTISKTQIPKVVADRRSARIPLNEIQKKRTGRIPELESTISQLQEELKKAKEELNRSEALKREAQEEAEDAKHQLMDINASEDSRIEELRKLSQERDKTWQSELEAMQRQHGMDSTALSSAINEVQKLKSKLFESESELEQSKYEVRSLEKLVRQLEEERVNSRDSSSSMEVEELKEAMNLSRQEITQLKSAVEAAETRYQEEYIQSTLQIRSAYEQTEAVKSRYSQREAELTEELNRTKDEIEGLRKELMEKVKEDESTGDLKKLESDLMEVRGSLMDKEMELQILRSAMEKKVETANTEAMEAELKRVKIQCEQWRKAAETAASILNNDEERTDSIETSKMLKKFGVLLKKNHK |  |  |  |  |  | no binding | binds | no binding
